In PubChem BioAssay AID1508642 (National Center for Advancing Translational Sciences (NCATS), 2021):
The whole screen tested about 43,000 compounds, of which about 200 (0.47%) were called active. Inconclusive means that the source gave no clear call. Such entries were picked first, then a sample of the others. Calls follow the shape of the dose curve; as a rule, active = well fitted cell-killing curve with a large enough effect; inconclusive = small, poorly fitted or top-dose-only effect, or effect the other way; inactive = flat fitted curve, though single readings scatter. Potencies beside an inconclusive call are fits to weak or partial responses and may not hold up.

experiment: Cell viability qHTS assay in S16 Pmp22-F2sN cells; conditions: S16 Pmp22-F2sN Schwann cells (luciferase reporters placed in the Pmp22 gene) viability, CellTiter-Glo, 24 h; series mostly up to 57.5 µM; also: nearly all actives have a fitted effect of over 65% in size
How it was run: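 S16 Schwann cells carrying the Pmp22-F2sN reporter, seeded in 1536-well format, were exposed to library compounds for 24 h at 37C. Viability was read as CellTiter-Glo luminescence after 15 min at room temperature.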
Potency is read from the fitted curve at half-maximal effect; tags tell the direction and shape of the fitted curve.

Row | Structure (SMILES) | Potency
1 | CCOc1ccc(C(=O)Nc2cc(-c3nc4ccccc4s3)ccc2OC)cc1 | inactive
2 | COc1ccccc1-c1cc2nc(C)c(CCC(=O)NCc3cccc(Cl)c3)c(C)n2n1 | inactive
3 | Cc1c(Cl)cccc1NC(=O)CCN1C(=O)c2ccccc2Sc2ncccc21 | inconclusive: 31.6 µM [cytotoxic, partial curve, poor fit]
4 | CCC(Sc1nc2ccccc2c2nc(-c3ccccc3)nn12)C(=O)Nc1cccc(OC)c1 (stereo not drawn) | inconclusive: 0.794 µM [cytotoxic, full curve]
5 | O=C(Nc1cccc(Cl)c1)c1ccc(F)c(S(=O)(=O)N2CCC3(CC2)OCCO3)c1 | inactive
6 | COc1cc2ccccc2cc1C(=O)N1CCN(c2nc3ccc(F)cc3s2)CC1 | inconclusive: 22.4 µM [cytotoxic, single point]
7 | C=Cc1ccc(CSc2nc(-c3ccc(C)cc3)nc3c2Cc2c(CO)cnc(C)c2O3)cc1 | inconclusive: 31.6 µM [cytotoxic, single point]
8 | CCOc1ccc(S(=O)(=O)Nc2nc3ccccc3nc2Nc2ccc(OC)cc2)cc1 | inactive
9 | CCc1ccccc1NC(=O)C1CCCN(c2ncnc3onc(C)c23)C1 (stereo not drawn) | inconclusive: 28.2 µM [cytotoxic, single point]
10 | COc1ccc(CNC(=O)c2ccc(CS(=O)Cc3ccccc3Cl)o2)cc1 (stereo not drawn) | inactive
11 | COc1ccccc1CCNS(=O)(=O)c1ccc(N2CCCCS2(=O)=O)cc1 | inconclusive: 22.4 µM [cytotoxic, single point]
12 | Cc1ccc(Cl)cc1-n1ncc2c(Nc3cccc(C)c3C)ncnc21 | inconclusive: 31.6 µM [cytotoxic, single point]
13 | COc1ccc(S(=O)(=O)Nc2ccc3c(c2)CCCN3S(=O)(=O)c2ccc(C)cc2)cc1F | inconclusive: 39.8 µM [cytotoxic, single point]
14 | O=C(Nc1ccc2nc(SCC(=O)N3CCCc4ccccc43)sc2c1)c1ccccc1 | inconclusive: 31.6 µM [cytotoxic, partial curve, poor fit]
15 | COc1ccc(N2CCN(C(=O)c3cccc(NC(=O)c4nsc5ccccc45)c3)CC2)cc1 | inconclusive: 28.2 µM [cytotoxic, single point]
16 | COc1ccccc1NC(=O)C1=C(C)Nc2nc(SCc3ccccc3F)nn2C1c1cccs1 (stereo not drawn) | inactive
17 | COc1cc(NC(=O)c2cc(C)nc3c2c(C)nn3-c2ccccc2Cl)cc(OC)c1 | inconclusive: 35.5 µM [cytotoxic, single point]
18 | CSCCC(NS(=O)(=O)c1ccc2c(c1)oc(=O)n2C)C(=O)N1CCN(c2cccc(Cl)c2)CC1 (stereo not drawn) | inactive
19 | CCc1ccccc1NS(=O)(=O)c1ccc(NC(=O)N2CCCC2)cc1 | inconclusive: 39.8 µM [cytotoxic, single point]
20 | CCOC(=O)c1cc(-c2ccc(F)cc2)n(CCC(=O)NCCc2ccc(C)cc2)c1C | inactive
21 | CC(C)Sc1ncc(Cl)c(C(=O)Nc2ccc(S(=O)(=O)N(C)c3ccccc3)cc2)n1 | inactive

Row | Structure (SMILES) | Potency
22 | CC(C)N(Cc1ccccc1)C(=O)CCS(=O)(=O)c1ccc2c(c1)oc(=O)n2C | inconclusive: 22.4 µM [cytotoxic, single point]
23 | O=C(NCc1ccccc1)c1ccc(CSc2nc3cccnc3n2Cc2ccccc2F)cc1 | inconclusive: 39.8 µM [cytotoxic, single point]
24 | CC(C)NC(=O)C1CCN(c2nc3ccccc3nc2C(F)(F)F)CC1 | inconclusive: 39.8 µM [cytotoxic, single point]
25 | CCn1c(-c2ccc(S(=O)(=O)N3CCOCC3)cc2)csc1=Nc1ccc(C)c(Cl)c1 | inactive
26 | Cc1ccc(C)c(CN2CCC(CNC(=O)c3cc4ccc5cccnc5c4[nH]3)CC2)c1 | inconclusive: 25.1 µM [cytotoxic, partial curve, poor fit]
27 | Cc1ccc(C(=O)n2nc(C)c(S(=O)(=O)N3CCCCCC3)c2C)cc1 | inactive
28 | COc1ccc(CNC(=O)CCC(=O)N2CC3CCCN3c3ccccc32)c(OC)c1 (stereo not drawn) | inconclusive: 3.16 µM [cytotoxic, full curve, poor fit]
29 | O=C(Nc1c(C(=O)N2CCN(c3ccccc3)CC2)oc2ccccc12)c1ccco1 | inactive
30 | Cc1ccc(CCNC(=O)CCS(=O)(=O)c2cc3c(cc2C)NC(=O)CO3)cc1 | inactive
31 | COc1cc(OC)c(NS(=O)(=O)c2cc(-c3cnc(C4CC4)o3)ccc2C)cc1Cl | inconclusive: 1.41 µM [cytotoxic, full curve, poor fit]
32 | Cc1nnc(N2CCC(C(=O)NCCc3ccccc3)CC2)c2nn(-c3ccc(Cl)cc3)c(C)c12 | inactive
33 | Cc1ccc(-n2ncc(C(=O)N3CCN(c4ccc(Cl)cc4)CC3)c2C2CCN(C(=O)OC(C)(C)C)CC2)c(C)c1 | inconclusive: 39.8 µM [cytotoxic, single point]
34 | Cc1ccc(-c2nc(Cn3c(=O)cc(-c4ccccc4)c4c(C)nn(C)c43)c(C)o2)cc1 | inactive
35 | O=C(CSc1nnc(-c2ccc([N+](=O)[O-])cc2)o1)Nc1ccccc1 | inactive
36 | O=C(NCC(c1cccs1)S(=O)(=O)c1ccccc1)c1ccc(C(F)(F)F)cc1 (stereo not drawn) | inconclusive: 35.5 µM [cytotoxic, partial curve, poor fit]
37 | COc1ccc(CNC(=O)CSc2ncc3c(n2)-c2ccc(Cl)cc2N(Cc2ccccc2)S3(=O)=O)cc1 | inconclusive: 31.6 µM [cytotoxic, single point]
38 | CCOC(=O)c1ccc(NC(=O)Cn2c(=O)cc(C)c3c(C)nn(-c4ccc(CC)cc4)c32)cc1 | inconclusive: 2.51 µM [cytotoxic, single point]
39 | Cc1cccc(CC(=O)N2CC(=O)Nc3ccc(Br)cc3C2c2ccc(F)cc2)c1 (stereo not drawn) | inconclusive: 39.8 µM [cytotoxic, single point]
40 | CCc1cccc(-n2nnc(-c3nsc(NC(=O)c4cccc(OC)c4)n3)c2C)c1 | inconclusive: 3.55 µM [cytotoxic, full curve, poor fit]
41 | O=C(Cn1ncc2c3ccccc3n(Cc3ccccc3F)c2c1=O)NCc1ccccc1Cl | inconclusive: 39.8 µM [cytotoxic, single point]
42 | COc1ccc(Br)cc1S(=O)(=O)Nc1cc(-c2cn3ccccc3n2)ccc1C | inconclusive: 25.1 µM [cytotoxic, single point]

Row | Structure (SMILES) | Potency
43 | Cc1ccc(-n2ncc3c(Nc4cccc(Cl)c4)ncnc32)c(C)c1 | inactive
44 | CCN(CC)c1cc(C)c2cc(NC(=O)/C=C/c3cc(OC)c(OC)c(OC)c3)ccc2n1 | inconclusive: 39.8 µM [cytotoxic, single point]
45 | CCn1cc(S(=O)(=O)c2cc(C)cc(C)c2)c(=O)c2cc(F)c(N3CCCCC3)cc21 | inconclusive: 39.8 µM [cytotoxic, single point]
46 | COc1ccc(Nc2c3c(nc4ccccc24)CCC3)cc1Cl | inconclusive: 39.8 µM [cytotoxic, single point]
47 | CCc1nn2c(=O)cc(COC(=O)Cc3ccccc3)nc2s1 | inconclusive: 0.501 µM [cytotoxic, full curve, poor fit]
48 | COc1cc(OC)c(NC(=O)CCS(=O)(=O)c2ccc3c(c2)oc(=O)n3C)cc1Cl | inconclusive: 39.8 µM [cytotoxic, single point]
49 | O=C(Nc1ccc2c(c1)CCCN2C(=O)c1cccs1)c1ccc(F)c(F)c1 | inconclusive: 35.5 µM [cytotoxic, partial curve, poor fit]
50 | CCc1cccc(NS(=O)(=O)c2ccc3c(c2)CC(C)N3C(=O)C2CC2)c1 (stereo not drawn) | inconclusive: 5.62 µM [cytotoxic, partial curve]
51 | Cc1nc2cc(-c3cccc(F)c3)nn2c(C)c1CCC(=O)NCCc1ccccc1 | inactive
52 | COc1ccc(-c2nc(C(=O)Nc3cccc(C(C)=O)c3)nn2-c2ccccc2Cl)cc1 | inconclusive: 39.8 µM [cytotoxic, partial curve, poor fit]
53 | CCCCCn1c(CCCNC(=O)c2ccc(Cl)cc2)nc2ccccc21 | inconclusive: 25.1 µM [cytotoxic, partial curve, poor fit]
54 | COCCCNC(=O)c1cc2c(-c3cccc(OC)c3)nn(C)c2s1 | inconclusive: 39.8 µM [cytotoxic, single point]
55 | Cc1cccc(NC(=O)Cn2c(=O)n(CCCCCC(=O)NCc3ccccc3)c(=O)c3sccc32)c1 | inconclusive: 17.8 µM [cytotoxic, partial curve, poor fit]
56 | CCOC(=O)c1cc2c(=O)n3ccccc3nc2n(C)c1=NC(=O)c1c(-c2c(F)cccc2Cl)noc1C | inactive
57 | Cc1ccc(-c2nnc(Nc3cccc(Cl)c3)c3ccccc23)cc1S(=O)(=O)N1CCN(C)CC1 | inconclusive: 39.8 µM [cytotoxic, single point]
58 | Cc1ccc(Cn2c(SCc3ccc(C(=O)N4CCCCC4)cc3)nc3ccncc32)cc1 | inconclusive: 25.1 µM [cytotoxic, single point]
59 | CCc1ccccc1NC(=O)Cn1nc(CC)n2c(cc3sccc32)c1=O | inactive
60 | CCn1c(=O)n(CC)c2cc(N3CCCC3)c(NC(=O)Nc3cc(C)cc(C)c3)cc21 | inconclusive: 39.8 µM [cytotoxic, single point]
61 | COc1ccccc1N1CCN(C(=O)c2ccc(Nc3nc4ccccc4n4nnnc34)cc2)CC1 | active: 3.55 µM
62 | CCn1c(CN2CCCCC2)nc2cc(NC(=O)c3cccc([N+](=O)[O-])c3)ccc21 | inconclusive: 39.8 µM [cytotoxic, single point]
63 | CCN(Cc1ccccc1)C(=O)Cn1c(=O)n(-c2cccc(C)c2)c(=O)c2c1c1cc(OC)ccc1n2C | inactive
